Out of some 420,000 compounds screened, about 50,000 (12%) were called active. The shares of active, inactive and inconclusive entries below differ from those in the screen. Calls come from the whole dose curve; as a rule, active = well fitted inhibition curve with a large enough effect; inconclusive = small, poorly fitted or top-dose-only effect; inactive = flat fitted curve, though single readings scatter. Potencies of inconclusive entries are left out as doubtful fits.
assay: qHTS for Inhibitors of human tyrosyl-DNA phosphodiesterase 1 (TDP1): qHTS in cells in presence of CPT; details: chicken DT40 Tdp1-/-;hTDP1 cells + 20 nM CPT, ATP luminescence, 48 h; activity change, negative = growth inhibition: at 46.2 µM (top of the series) unless noted; note: nearly all actives have a fitted effect of over 55% in size
Procedure, shortened: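 Chicken DT40 Tdp1-/- cells stably complemented with human TDP1 were seeded at 400 cells/well in medium containing 20 nM camptothecin, exposed to pin-transferred compounds, and grown at 37 °C for at least 48 hr. Viability was read as ATP luminescence.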
% is set by controls: 0 for no effect and ±100 for the full control effect; potency is the fitted concentration of half-maximal effect; tags give direction and shape of the fitted curve.

| Compound | Potency | activity change, negative = growth inhibition |
| --- | --- | --- |
| COc1ccc(Cn2c(C(=O)O)c(CNCc3ccc(C)o3)c3ccc(OC)cc32)cc1 | active: 23.1 µM | – |
| CCOC(=O)C1(CCCc2ccccc2)CCN(C(=O)Cn2nc(C)nc2C)CC1 | active: 23.1 µM | – |
| CC(C)OC(=O)CSc1nnc(CNc2cccc(Cl)c2)n1C | inactive | – |
| O=C(Nc1ccccc1OC(F)F)c1ccccc1 | inactive | – |
| CCn1c(=O)cc(OCC(=O)N2CCc3ccccc32)c2ccccc21 | inactive | – |
| CCOc1ccc(NC(=O)c2ccc3nc(C(C)C)oc3c2)cc1 | active: 20.6 µM | – |
| Cc1ccc(C)c(-c2nnc(NC(=O)CS(=O)(=O)c3ccccc3)o2)c1 | active: 11.6 µM | – |
| COC(=O)c1oc2ccc(Br)cc2c1NC(=O)c1ccccc1 | inconclusive [inhibitor, partial curve] | – |
| CC1CCN(S(=O)(=O)c2ccc3c(c2)c(=O)c(C(=O)NCc2cccs2)cn3C)CC1 | inconclusive [inhibitor, single point] | – |
| COc1ccc(/C(C)=N/Nc2nc(C)cc(-c3ccccc3)n2)cc1 | active: 4.11 µM | – |
| O=C(c1cccnc1)N1CCC(Oc2ccc(C(=O)N3CCCCO3)cc2)CC1 | inactive | – |
| O=C(CSc1nc2ccccc2[nH]1)N/N=C/C=C\c1ccccc1[N+](=O)[O-] | inconclusive [inhibitor, single point] | – |
| COc1ccc(Cn2c(=O)c3ccccc3n3c(-c4ccc(C)cc4)nnc23)cc1 | inconclusive [inhibitor, single point] | – |
| O=C1C(NS(=O)(=O)c2ccc(Br)cc2)=C(N2CCCCC2)C(=O)c2ccccc21 | inconclusive [inhibitor, single point] | – |
| S=c1[nH]nc(-c2cc(-c3ccccc3)n[nH]2)n1/N=C/C=C/c1ccccc1 | inconclusive [inhibitor, single point] | – |
| CC(C)NC(=O)c1cc(C2CCCCN2C(=O)c2ccc(Cl)cc2)on1 (stereo not drawn) | inactive | – |
| COc1ccccc1OC(C)C(=O)N1CCC(c2nc3ccccc3s2)CC1 (stereo not drawn) | inconclusive [inhibitor, single point] | – |
| [S-]C(=Nc1ccc(Cl)cc1)N[n+]1ccccc1 | inconclusive [inhibitor, partial curve] | – |
| COc1ccccc1NC(=S)N(CCCN1CCOCC1)Cc1cccs1 | inactive | – |
| OCCN1CCN(c2ncnc3ccc(Br)cc23)CC1 | inactive | – |
| CC(=O)c1cccc(CN2CCCC(C(=O)Nc3cccc(-n4cccn4)c3)C2)c1 (stereo not drawn) | inconclusive [inhibitor, partial curve] | – |
| COc1ccc2[nH]cc(CCNC(=O)COc3ccc4ccc(=O)oc4c3)c2c1 | inconclusive [inhibitor, single point] | – |
| CCc1cccc(NC(=O)Cn2nc(C)c3sc4ccccc4c3c2=O)c1 | inactive | – |
| CCn1c(SCc2nc(-c3cccs3)no2)nnc1-c1c[nH]c2ccccc12 | inconclusive [inhibitor, single point] | – |
| CC(C)C1C(=O)N(Cc2cn(CCC3OCCO3)nn2)CCS(=O)(=O)N1Cc1ccc(-c2ccc(F)nc2)cc1 (stereo not drawn) | inconclusive [inhibitor, partial curve] | – |

| Compound | Potency | activity change, negative = growth inhibition |
| --- | --- | --- |
| CC1(C)C2CC=C(/C=N/NC(=O)c3ccc(Cl)cc3)C1C2 (stereo not drawn) | inconclusive [inhibitor, single point] | – |
| CCN(CC(=O)NCc1cccs1)C(=O)/C=C/c1ccc(Cl)c(Cl)c1 | inactive | – |
| O=C1c2ccccc2C(=O)N1c1nc(-c2ccc(F)cc2)cs1 | inactive | – |
| COc1ccc(N2CCN(C(=O)c3cc4cc(Cl)ccc4[nH]3)CC2)cc1 | inconclusive [inhibitor, single point] | – |
| COc1cc(/C=C/C(=O)Nc2ccc(OC)c(S(=O)(=O)N3CCOCC3)c2)ccc1OC(F)F | active: 18.4 µM | – |
| COc1ccc(NC(=O)c2cnc3sc(N4CCOCC4)nn3c2=O)c(OC)c1 | inactive | – |
| CCOC(=O)c1csc(Nc2nc3ccc(F)cc3s2)n1 | active: 20.6 µM | – |
| O=[N+]([O-])c1ccc2c(c1)[nH]c(=S)n2-c1ccccc1 | inactive | – |
| CCCCCCOC(=O)CC1CC(C(C)=O)C1(C)C (stereo not drawn) | inactive | – |
| COc1cc(/C=C(\C#N)C(=O)NC2CCCCC2C)ccc1OS(=O)(=O)c1ccc(C)cc1 (stereo not drawn) | inconclusive [inhibitor, single point] | – |
| CCOc1ccccc1NC(=O)C1CCCN(S(=O)(=O)c2cccc3cccnc23)C1 (stereo not drawn) | inconclusive [inhibitor, single point] | – |
| COc1ccc2[nH]c3c(c2c1)CCN1C(=O)N([C@@H](C)C(=O)NCc2ccco2)C(=O)[C@]31C | inconclusive [inhibitor, single point] | – |
| O=C(Cn1ccc(NC(=O)OCc2ccccc2)nc1=O)NCc1ccc2[nH]ccc2c1 | inactive | – |
| C=C1C(CCl)(CCl)C2(Cl)C(Cl)C(Cl)C1(Cl)C2(Cl)Cl (stereo not drawn) | inconclusive [inhibitor, single point] | – |
| Nc1nc(NC(=O)c2cccc(S(=O)(=O)N3CCCCCC3)c2)nc(-c2ccccc2)n1 | inconclusive [inhibitor, single point] | – |
| Cc1cccc(N2CCN(C(=O)Cc3ccc(Br)cc3)CC2)c1C | inconclusive [inhibitor, single point] | – |
| CC(C)NCc1cc(Br)ccc1OCc1ccccc1 | inconclusive [inhibitor, single point] | – |
| O=c1cc(CN2CCC3(CC2)OCCO3)c2c(ccc3ccccc32)o1 | inconclusive [inhibitor, partial curve, poor fit] | – |
| COc1ccccc1NC(=S)NC(=O)c1c(-c2ccccc2Cl)noc1C | inactive | – |
| CCOC(=O)C1CCN(C(=O)c2ccc(OCC(=O)N3CCOCC3)c(OC)c2)CC1 | inactive | – |
| O=C(C[C@H]1C[C@H](C(=O)N2CCOCC2)[C@@]2(CCC3CCCC3)c3[nH]c4ccc(Cl)cc4c3CCN2C1=O)NCCCn1ccnc1 | inconclusive [inhibitor, single point] | – |
| CCCn1c(NCc2ccccc2F)nc2ccccc21 | inactive | – |
| COc1cccc(NC(=O)c2cc(-c3ccc(OC)cc3OC)nc3ccccc23)c1 | inconclusive [inhibitor, single point] | – |
| Cc1cc(OCC(=O)Nc2ccc3oc(=O)ccc3c2)ccc1Cl | inactive | – |
| COC(=O)c1ccc2nc(NC(=O)C3CCCCC3)sc2c1 | inconclusive [inhibitor, partial curve] | – |

| Compound | Potency | activity change, negative = growth inhibition |
| --- | --- | --- |
| CCC(=O)N1c2ccc(S(=O)(=O)CCC(=O)N3CCN(c4ccc(F)cc4)CC3)cc2CC1C (stereo not drawn) | active: 14.6 µM | – |
| C=CCn1c(NC(=O)c2ccc(C)cc2)nc2ccccc21 | inconclusive [inhibitor, single point] | – |
| COc1ccc2c(c1)CC(NC(=O)Nc1ccc(Br)c(C)c1)CO2 (stereo not drawn) | inactive | – |
| O=C(NC1CCCCC1)C(c1ccc2ncccc2c1)N(Cc1ccccc1)C(=O)c1cccs1 (stereo not drawn) | inconclusive [inhibitor, single point] | – |
| CCN(CC)CCC(c1ccc(OC)cc1)c1c(O)cc(OC)cc1OC (stereo not drawn) | active: 20.6 µM | – |
| CCn1c(/C=C2\C(=O)N(C(C)C)c3ccccc32)nc2ccccc2c1=O | inconclusive [inhibitor, single point] | – |
| Cc1cc(C)c(C)c(S(=O)(=O)N2CCN(Cc3nc4ccccc4[nH]3)CC2)c1C | inconclusive [inhibitor, single point] | – |
| CCCn1c2ccccc2c2cnn(CC(=O)NCCCN3CCN(c4ccccc4)CC3)c(=O)c21 | inconclusive [inhibitor, single point] | – |
| O=C(CC1OC(=O)c2ccccc21)Nc1cc(S(=O)(=O)N2CCOCC2)ccc1OCC(F)(F)F (stereo not drawn) | inconclusive [inhibitor, single point] | – |
| COc1ccc(CC(N)c2csc(NC(=O)NCCc3ccc(OC)c(OC)c3)n2)cc1 (stereo not drawn) | active: 18.4 µM | – |
| COc1ccc(NC(=O)c2cccnn2)cc1 | inactive | – |
| CCOC(=O)CNC(=O)c1sc(NC(=O)c2ccccc2F)nc1C | inconclusive [inhibitor, full curve] | – |
| O=C(CN1CCN(C(=O)c2ccco2)CC1)Nc1cc(C(F)(F)F)ccc1Cl | inconclusive [inhibitor, single point] | – |
| O=C(NCc1cccc(F)c1)c1ccc2nc(CCc3ccccc3)oc2c1 | active: 20.6 µM | – |
| O=C1N2c3ccccc3CCc3cccc(c32)C1(O)C(F)(F)F (stereo not drawn) | inactive | – |
| CC(OC(=O)C1CCN(c2ccc(C(F)(F)F)cn2)CC1)C(=O)Nc1cccc([N+](=O)[O-])c1 (stereo not drawn) | inconclusive [inhibitor, single point] | – |
| CC(C)(C)NS(=O)(=O)c1ccc(NC(=O)c2cc(-c3ccccc3)nc3ccccc23)cc1 | – | inconclusive: -0.141% [inhibitor] |
| N#CC1=C(N)NC(SCC(=O)Nc2ccc(Br)cc2)=C(C#N)C12CCCCC2 | active: 25.9 µM | – |
| Cc1ccc(CC(=O)N2CCN(c3ccccc3F)CC2)cc1 | inactive | – |
| COC(=O)CN1C(=O)C(O)(CC(=O)c2ccc(Cl)cc2)c2ccccc21 (stereo not drawn) | inconclusive [inhibitor, single point] | – |
| COc1ccc(-c2nnc(SCC(=O)Oc3cc(C)ccc3C)o2)cc1 | inactive | – |
| Nc1ccccc1NC(=O)CCn1c(=S)[nH]c2ccccc2c1=O | inconclusive [inhibitor, single point] | – |
| O=C(O)C1C2C=CC(O2)C1C(=O)NC1CCCc2ccccc21 (stereo not drawn) | inactive | – |

From PubChem BioAssay AID686979 (National Center for Advancing Translational Sciences (NCATS), 2013)
